Among all 370,000 compounds or so, about 150 (0.041%) were called active. The shares of active, inactive and inconclusive entries below differ from those in the screen. The call rests on the fitted dose curve; in most records, active means well fitted inhibition curve with a large enough effect; inconclusive means small, poorly fitted or top-dose-only effect; inactive means flat fitted curve, though single readings scatter. Potencies of inconclusive entries are left out as doubtful fits.
target: Beta-lactamase (Escherichia coli (strain K12)) (UniProt P00811); assay: qHTS Inhibitors of AmpC Beta-Lactamase (assay with detergent); conditions: AmpC hydrolysis of nitrocefin, absorbance 480 nm, 0.01% Triton; activity change, negative = inhibition: at 114 µM (top of the series); further: nearly all actives have a fitted effect of over 25% in size;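 on activity change, negative = inhibition: 0% = no-compound wells and -100% = no-enzyme wells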
Chain of UniProt P00811 (P00811 whole entry, looked up): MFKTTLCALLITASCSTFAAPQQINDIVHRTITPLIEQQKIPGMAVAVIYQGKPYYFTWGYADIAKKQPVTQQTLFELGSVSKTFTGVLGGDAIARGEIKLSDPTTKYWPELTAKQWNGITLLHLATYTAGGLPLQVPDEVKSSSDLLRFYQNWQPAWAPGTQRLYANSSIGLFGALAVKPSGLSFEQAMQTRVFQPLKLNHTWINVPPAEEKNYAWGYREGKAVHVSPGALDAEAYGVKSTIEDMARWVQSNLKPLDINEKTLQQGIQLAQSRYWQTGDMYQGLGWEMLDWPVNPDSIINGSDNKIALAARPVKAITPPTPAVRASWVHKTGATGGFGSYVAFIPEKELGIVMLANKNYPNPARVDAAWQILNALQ
In short: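 AmpC (5.3 nM in the dispensed reagent) in 20 mM phosphate pH 7.0 with 0.01% (detergent screen) or 0.0001% Triton X-100 was preincubated with compounds for 15 min at room temperature. Nitrocefin was then added from an 800 uM solution, and hydrolysis was followed at 480 nm.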
Potency means the concentration at half of the fitted maximal effect; tags describe the fitted curve by direction and shape.

Structure (SMILES) | activity change, negative = inhibition | Potency
NC(=O)c1ccc(NC(=O)COc2coc(CN3CCc4ccccc4C3)cc2=O)cc1 | inactive: -12.7% | 
CCN(CC)S(=O)(=O)c1ccc(Cl)nc1 | inactive: 4.39% | 
CC(=O)N1CCN(C(=O)c2ccc3c(c2)OCCO3)CC1 |  | inconclusive [inhibitor, full curve, poor fit]
O=C(CN1C(=O)C(=O)N(C2CCCC2)C1=O)Nc1ccc(Cl)cc1C(F)(F)F | inactive: 7.31% | 
Cc1ccc(CN(C)C(=O)c2cccc(S(=O)(=O)N3CCCC3)c2)cc1 |  | inconclusive [inhibitor, single point]
O=C1/C(=C/c2ccccc2F)SC(=S)N1CC(=O)N1CCCCC1c1cccnc1 (stereo unspecified) | inactive: 2.61% | 
Cc1ccc(OCC(=O)N2CCN(Cc3cccnc3)CC2)cc1 |  | inconclusive [inhibitor, partial curve, poor fit]
Cc1nn(C)c(C)c1S(=O)(=O)N(CC(=O)N1CCN(c2ccccc2)CC1)c1ccc(C(C)C)cc1 | inactive: 13.9% | 
O=C(NC(=S)N1CCN(c2ccccc2)CC1)c1ccc(S(=O)(=O)N2CCOCC2)cc1 | inactive: -7.96% | 
COc1cc(CNCCNCC(C)O)ccc1OCc1ccc(Cl)nc1 (stereo unspecified) |  | inconclusive [inhibitor, partial curve, poor fit]
O=C(CSc1nccc(=O)[nH]1)Nc1ccc2c(c1)OCCO2 |  | inconclusive [inhibitor, full curve, poor fit]
Cc1cc(C)cc(NC(=O)C(NCCN2CCOCC2)c2ccccc2)c1 (stereo unspecified) |  | inconclusive [inhibitor, partial curve, poor fit]
Nc1cnc(Nc2ccc(Br)cc2)nc1N | inactive: -3.7% | 
CCOc1ccccc1NC(=O)CN1c2ccccc2S(=O)(=O)c2ccccc21 | inactive: -2.2% | 
CCCCCCCCNC(C)C(O)c1ccc(SC(C)C)cc1 (stereo unspecified) | inactive: 1.9% | 
Cc1nc(CSc2nnc(Nc3cccc(C)c3C)s2)cs1 | inactive: 0.577% | 
CCOC(=O)C1=C(C)NC2=C(C(=O)CC(C)(C)C2)C1c1cccc(C)n1 (stereo unspecified) |  | inconclusive [inhibitor, full curve, poor fit]
CC(=O)Nc1ccc(S(=O)(=O)Nc2c(C)n(C)n(-c3ccccc3)c2=O)cc1 |  | inconclusive [inhibitor, partial curve, poor fit]
O=C(NCc1ccncc1)c1ccc(S(=O)(=O)Nc2ccccc2)cc1 |  | inconclusive [inhibitor, full curve, poor fit]
Cc1c(C(=O)N2CCCCCC2)oc2ccccc12 |  | inconclusive [inhibitor, full curve]
COc1cc2[nH]c(=O)n(CCCCCC(=O)N3CCN(c4ccccc4)CC3)c(=O)c2cc1OC | inactive: 1.92% | 
O=c1c2cccnc2[nH]c(=S)n1CCCN1CCN(c2ccccc2F)CC1 |  | inconclusive [inhibitor, partial curve, poor fit]

Structure (SMILES) | activity change, negative = inhibition | Potency
CC(NC(=O)c1ccccc1NC(=O)c1ccco1)c1ccccc1 (stereo unspecified) |  | inconclusive [inhibitor, single point]
CN(c1cccc(Cl)c1)S(=O)(=O)c1cccc(C(=O)NCc2ccncc2)c1 |  | inconclusive [inhibitor, partial curve, poor fit]
CCOc1ccc2ccccc2c1C1NC(=O)NC(C)=C1C(=O)OCCOC (stereo unspecified) |  | inconclusive [inhibitor, full curve]
COc1ccc(-c2cc(=O)oc3cc(OC(=O)C4CCCCC4)c(Cl)cc23)cc1 |  | inconclusive [inhibitor, partial curve, poor fit]
O=C(COc1cccc2c1CCN(Cc1ccccc1F)C2=O)N1CCCCC1 |  | inconclusive [inhibitor, full curve]
c1ccc2oc(NC3=NCN(C4CCCCC4)CN3)nc2c1 |  | inconclusive [inhibitor, single point]
CN(CC(=O)Nc1ccccc1Cl)C(=O)COc1cccc2c1OC(C)(C)C2 |  | inconclusive [inhibitor, full curve, poor fit]
COC(=O)c1ccc(CSc2nc3c(cnn3-c3ccc(F)cc3)c(=O)[nH]2)o1 |  | inconclusive [inhibitor, full curve, poor fit]
COc1ccc(S(=O)(=O)N(C)CC(=O)NCC2CCCO2)cc1OC (stereo unspecified) |  | inconclusive [inhibitor, full curve, poor fit]
N#CC1(NC(=O)CN2C(=O)NC3(CCCCCC3)C2=O)CCCCC1 |  | inconclusive [inhibitor, full curve, poor fit]
CCN(CC(=O)Nc1ccc(N2CCOCC2)cc1)C(=O)Cc1ccccc1 | inactive: -5.61% | 
CCOC(=O)N1CCN(C(=O)CN(CC)S(=O)(=O)c2cc(C)ccc2OC)CC1 |  | inconclusive [inhibitor, full curve, poor fit]
Cc1ccc(OCCn2nnc3ccccc32)cc1C |  | inconclusive [inhibitor, full curve, poor fit]
Cc1cc(C)c(NC(=O)/C(=C/c2ccco2)c2ccccc2)c(C)c1 | inactive: -7.81% | 
Cc1ccccc1NC(=O)Cc1nc(COC(=O)CC(C)c2ccccc2)cs1 (stereo unspecified) |  | inconclusive [inhibitor, full curve, poor fit]
CCCCCCCCNc1nc(Cl)nc(NCCN2CCOCC2)n1 | inactive: 1.04% | 
COc1cc(/C=N/Nc2ccccc2)ccc1O | inactive: 2.76% | 
CCN(CC)CCN=Cc1c(O)n(C2CCCCCC2)c(=O)[nH]c1=O |  | inconclusive [inhibitor, full curve, poor fit]
CCSc1nc2ccccc2n1C(=O)Oc1ccccc1 |  | inconclusive [inhibitor, partial curve, poor fit]
Oc1ccc(CNCc2ccc3c(c2)OCO3)c2cccnc12 | inactive: -9.2% | 
Cc1onc(-c2c(F)cccc2Cl)c1C(=O)N(C)CC(=O)Nc1cccc(F)c1 |  | inconclusive [inhibitor, partial curve]
CCOC(=O)c1[nH]c(C)c(C(=O)OCC(=O)N2c3ccccc3CC2C)c1C (stereo unspecified) |  | inconclusive [inhibitor, full curve, poor fit]

Structure (SMILES) | activity change, negative = inhibition | Potency
Cc1cccc(N2CCN(Cc3ccc4c(c3)OCO4)CC2)c1C |  | inconclusive [inhibitor, full curve, poor fit]
Cc1ccc(CN2C3CCCC2CC(NC(=O)c2ccc(F)cc2)C3)cc1 (stereo unspecified) | inactive: 4.79% | 
Cc1ccn2c(c1)nc(=S)n2C(=O)c1ccccc1 |  | inconclusive [inhibitor, partial curve, poor fit]
Cc1ccc(C)c(-c2csc(NC(=O)c3c(C)noc3C)n2)c1 |  | inconclusive [inhibitor, partial curve]
Nc1ccnn1Cc1cccnc1 |  | inconclusive [inhibitor, single point]
CCCCC(=O)OC1=C(C(=O)c2ccccc2)N(CC)S(=O)(=O)c2ccccc21 |  | inconclusive [inhibitor, full curve, poor fit]
Cc1ncc(CO)c(/C=N/NC(=S)Nc2cccc(Cl)c2)c1O |  | inconclusive [inhibitor, single point]
Cc1ccc(-n2nnc3c(=O)n(CC(=O)N4CCC(C)CC4)cnc32)cc1 |  | inconclusive [inhibitor, single point]
CC(CN1CCOCC1)OC(=O)c1ccc2c(c1)OCCO2 (stereo unspecified) |  | inconclusive [inhibitor, single point]
Cc1noc(C)c1COc1ccccc1C(=O)N(C)CC(=O)Nc1cccc(F)c1 |  | inconclusive [inhibitor, full curve, poor fit]
O=C1COc2ccc(C(=O)COc3ccc(Cl)cc3Br)cc2N1 |  | inconclusive [inhibitor, full curve, poor fit]
O=C(Nc1cccc(F)c1)c1ccc(S(=O)(=O)N2CCOCC2)cc1 |  | inconclusive [inhibitor, full curve, poor fit]
N#C/C(=C\c1cccs1)C(=O)NCc1cccnc1 |  | inconclusive [inhibitor, full curve, poor fit]
COc1ccc(-n2c(Cc3cccn3C)nnc2SCC(N)=O)cc1 |  | inconclusive [inhibitor, full curve, poor fit]
CCN1CCN(CCCNC(=O)C2CCCN(c3nc4c(C)cc(C)cc4s3)C2)CC1 (stereo unspecified) | inactive: -3.87% | 
COc1ccc(-n2ncc3c(NCC(C)C)ncnc32)cc1 | inactive: -6.28% | 
O=C(NCCc1cccc(Cl)c1)c1ccc(Cl)c([N+](=O)[O-])c1 |  | inconclusive [inhibitor, single point]
O=C(NCc1ccc(F)cc1)c1ccc(S(=O)(=O)Nc2cccc(C(F)(F)F)c2)cc1 |  | inconclusive [inhibitor, full curve]
CS(=O)(=O)c1ccc(Cl)c(NC(=O)COC(=O)CNC(=O)c2ccccc2)c1 |  | inconclusive [inhibitor, partial curve, poor fit]
Cc1cccc(-n2c3nc(=O)[nH]c(=O)c-3cc3c(C)nn(-c4ccccc4)c32)c1C |  | inconclusive [inhibitor, partial curve, poor fit]
Clc1cnc(N/N=C/c2ccco2)c(Cl)c1 |  | inconclusive [inhibitor, partial curve, poor fit]
NC(=O)c1c(NC(=O)CSc2nc3c(c(C(F)(F)F)n2)CCc2ccccc2-3)sc2c1CCCC2 |  | inconclusive [inhibitor, full curve, poor fit]

Reference: PubChem BioAssay AID485294 (National Center for Advancing Translational Sciences (NCATS), 2010)
